Experiment [1] has as its target calmodulin-dependent protein kinase 1 (CaMK1) (mouse (endogenous in MVEC)) (UniProt Q91YS8). Kind of experiment: condition: only untreated and vehicle control treated cells (no necroptosis induction); co-IP; endogenous proteins of untreated and vehicle control treated mouse MVEC (no necroptosis induction); RIPA lysate, antibody, protein G agarose, Western blot.
Experiment [2] addresses T1, calmodulin-dependent protein kinase 4 (CaMK4) (mouse (endogenous in MVEC)) (UniProt P08414).
T1 sequence: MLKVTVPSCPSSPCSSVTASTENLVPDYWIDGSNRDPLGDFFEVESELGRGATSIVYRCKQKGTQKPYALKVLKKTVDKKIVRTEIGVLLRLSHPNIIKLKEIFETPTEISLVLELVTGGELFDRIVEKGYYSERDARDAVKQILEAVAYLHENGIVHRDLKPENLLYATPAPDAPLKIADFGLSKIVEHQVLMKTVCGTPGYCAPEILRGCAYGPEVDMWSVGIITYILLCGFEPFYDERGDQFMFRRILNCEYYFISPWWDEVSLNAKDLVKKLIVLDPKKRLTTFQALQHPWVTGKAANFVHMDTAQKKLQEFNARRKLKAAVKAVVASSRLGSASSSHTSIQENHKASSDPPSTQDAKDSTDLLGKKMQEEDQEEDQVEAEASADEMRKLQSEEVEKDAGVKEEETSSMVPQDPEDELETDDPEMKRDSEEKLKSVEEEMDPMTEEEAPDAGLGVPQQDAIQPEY
The experiment is described as above.

Sequences of proteins named here, by UniProt entry; tags and fusion partners are left off.
UniProt Q91YS8: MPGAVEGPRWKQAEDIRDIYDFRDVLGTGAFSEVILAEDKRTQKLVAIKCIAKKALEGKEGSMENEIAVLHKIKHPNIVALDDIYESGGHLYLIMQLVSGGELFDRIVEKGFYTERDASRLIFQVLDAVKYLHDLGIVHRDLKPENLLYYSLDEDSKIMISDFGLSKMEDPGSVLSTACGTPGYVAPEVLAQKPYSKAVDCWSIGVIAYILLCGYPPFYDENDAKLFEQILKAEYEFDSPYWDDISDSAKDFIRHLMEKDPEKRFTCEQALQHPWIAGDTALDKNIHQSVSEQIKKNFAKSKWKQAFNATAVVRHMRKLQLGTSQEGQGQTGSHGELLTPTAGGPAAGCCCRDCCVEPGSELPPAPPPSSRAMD
UniProt Q8K1M6: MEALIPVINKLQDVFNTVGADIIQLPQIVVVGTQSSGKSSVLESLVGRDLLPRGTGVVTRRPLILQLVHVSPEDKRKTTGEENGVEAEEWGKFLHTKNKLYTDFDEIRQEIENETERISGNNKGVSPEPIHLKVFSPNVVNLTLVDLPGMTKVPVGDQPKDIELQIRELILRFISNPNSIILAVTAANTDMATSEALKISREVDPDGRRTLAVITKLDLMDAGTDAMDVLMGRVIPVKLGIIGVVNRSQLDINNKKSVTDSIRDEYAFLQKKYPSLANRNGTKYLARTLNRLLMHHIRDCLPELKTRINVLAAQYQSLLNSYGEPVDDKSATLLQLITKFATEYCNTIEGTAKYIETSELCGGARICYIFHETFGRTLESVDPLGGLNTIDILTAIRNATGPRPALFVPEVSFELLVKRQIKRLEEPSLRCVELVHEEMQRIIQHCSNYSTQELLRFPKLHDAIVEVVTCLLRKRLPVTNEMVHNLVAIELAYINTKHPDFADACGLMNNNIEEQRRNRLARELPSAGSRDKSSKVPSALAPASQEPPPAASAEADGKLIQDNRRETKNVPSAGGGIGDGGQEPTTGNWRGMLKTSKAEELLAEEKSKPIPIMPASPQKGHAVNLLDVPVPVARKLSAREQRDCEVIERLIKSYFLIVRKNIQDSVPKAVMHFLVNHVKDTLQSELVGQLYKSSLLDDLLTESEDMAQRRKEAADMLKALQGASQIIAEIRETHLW
UniProt Q9QZL0: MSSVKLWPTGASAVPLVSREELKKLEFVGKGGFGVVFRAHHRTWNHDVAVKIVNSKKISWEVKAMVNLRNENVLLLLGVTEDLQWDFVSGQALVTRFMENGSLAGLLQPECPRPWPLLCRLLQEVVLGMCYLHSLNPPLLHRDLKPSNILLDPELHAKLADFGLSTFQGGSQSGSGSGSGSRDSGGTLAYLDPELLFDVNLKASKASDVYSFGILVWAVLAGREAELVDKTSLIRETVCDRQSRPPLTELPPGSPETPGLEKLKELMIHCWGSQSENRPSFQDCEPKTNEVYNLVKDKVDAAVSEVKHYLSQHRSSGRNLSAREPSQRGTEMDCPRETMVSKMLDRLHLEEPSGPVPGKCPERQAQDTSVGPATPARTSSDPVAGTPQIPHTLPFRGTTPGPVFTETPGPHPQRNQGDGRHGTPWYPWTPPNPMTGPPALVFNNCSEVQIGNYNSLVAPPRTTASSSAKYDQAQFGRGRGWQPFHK

Experiment [3] deals with T2, phosphoglycerate mutase 5 (PGAM5) (mouse (endogenous in MVEC)) (UniProt Q8BX10).
T2 sequence: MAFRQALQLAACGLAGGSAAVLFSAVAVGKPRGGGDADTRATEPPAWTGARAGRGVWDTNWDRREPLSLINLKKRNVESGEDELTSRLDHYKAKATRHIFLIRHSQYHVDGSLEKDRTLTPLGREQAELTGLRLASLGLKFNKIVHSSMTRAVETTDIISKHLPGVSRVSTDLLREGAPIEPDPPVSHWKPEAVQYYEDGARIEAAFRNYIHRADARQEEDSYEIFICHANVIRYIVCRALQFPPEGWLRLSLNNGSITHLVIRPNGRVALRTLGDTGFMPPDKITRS
The description is as above.

Experiment [4] addresses calmodulin-dependent protein kinase 1 (CaMK1) (mouse (endogenous in MVEC)) (UniProt Q91YS8). Nature of the experiment: co-IP; endogenous proteins of mouse MVEC induced to undergo necroptosis (TNFα + Smac mimetic BV6 + caspase-8 inhibitor z-IETD), collected after 4 h; RIPA lysate, 1 μg antibody 1-2 h at 4 °C, protein G agarose overnight at 4 °C, Western blot; rabbit IgG as control; in some panels cells treated 24 h before with vehicle or siRNA to CaMK1, CaMK2, CaMK4 or PGAM5.

The target of experiment [5] is T1, calmodulin-dependent protein kinase 4 (CaMK4) (mouse (endogenous in MVEC)). Described as above.
Experiment [6] addresses T2, phosphoglycerate mutase 5 (PGAM5) (mouse (endogenous in MVEC)). The experiment is described as above.
The target in experiment [7] is calmodulin-dependent protein kinase 1 (CaMK1) (mouse (endogenous in MVEC)) (UniProt Q91YS8). The description is as above. The source holds these as a separate data set.
Experiment [8] deals with T1, calmodulin-dependent protein kinase 4 (CaMK4) (mouse (endogenous in MVEC)). Described as above. The source holds these as a separate data set.

The record followed here is paper PMC11050252.

These are yes or no findings as the source states them, for the method shown. In cells and extracts the contact can be indirect. Some entries that bind do so weakly or less than the wild type.

As to “dynamin-related protein-1 (Drp1) (from UniProt Q8K1M6 1-736)”, the binding entry is listed as “no binding” in experiment [1]; “no binding” in experiment [2]; “no binding” in experiment [3]; “binds” in experiment [4]; “binds” in experiment [5]; “binds” in experiment [6].

For “receptor-interacting protein kinase 3 (RIPK3) (from UniProt Q9QZL0 1-486)”, the binding result in experiment [4] and in experiment [5] was “binds” each time.

B1: phosphoglycerate mutase 5 (PGAM5) (protein, UniProt Q8BX10 1-288)
chain: MAFRQALQLAACGLAGGSAAVLFSAVAVGKPRGGGDADTRATEPPAWTGARAGRGVWDTNWDRREPLSLINLKKRNVESGEDELTSRLDHYKAKATRHIFLIRHSQYHVDGSLEKDRTLTPLGREQAELTGLRLASLGLKFNKIVHSSMTRAVETTDIISKHLPGVSRVSTDLLREGAPIEPDPPVSHWKPEAVQYYEDGARIEAAFRNYIHRADARQEEDSYEIFICHANVIRYIVCRALQFPPEGWLRLSLNNGSITHLVIRPNGRVALRTLGDTGFMPPDKITRS
Regarding B1, the binding result in experiment [7] and in experiment [8] was “no binding” throughout.
